In assay [1] the target is T1, GFP-SNX32 (UniProt Q86XE0).
T1 sequence: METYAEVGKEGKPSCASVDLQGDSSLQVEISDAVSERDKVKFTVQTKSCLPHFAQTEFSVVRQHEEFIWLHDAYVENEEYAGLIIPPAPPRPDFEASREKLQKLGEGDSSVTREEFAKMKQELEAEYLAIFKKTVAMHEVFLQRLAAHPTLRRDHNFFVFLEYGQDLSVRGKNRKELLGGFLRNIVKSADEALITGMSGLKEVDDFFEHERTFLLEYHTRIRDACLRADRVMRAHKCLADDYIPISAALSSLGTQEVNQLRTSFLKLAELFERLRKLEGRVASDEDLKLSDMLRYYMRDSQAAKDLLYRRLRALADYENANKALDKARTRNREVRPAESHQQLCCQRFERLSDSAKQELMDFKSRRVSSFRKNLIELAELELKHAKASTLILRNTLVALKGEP
The experiment in a line: co-IP; GBP-IP of GFP-tagged SNX proteins from lysates of transfected cells (HeLa by the text; HEK293T by the legends of Figure 6A, C and I; the legend of Figure 6I also says GFP trap); endogenous TfR, CIMPR, SNX1 or BSG detected by immunoblot; values are the ratio of prey to GFP band intensity.

Assay [2] deals with GFP-SNX1 (UniProt Q13596). The assay is described as above.
Sequence of UniProt Q13596 (Q13596 whole entry): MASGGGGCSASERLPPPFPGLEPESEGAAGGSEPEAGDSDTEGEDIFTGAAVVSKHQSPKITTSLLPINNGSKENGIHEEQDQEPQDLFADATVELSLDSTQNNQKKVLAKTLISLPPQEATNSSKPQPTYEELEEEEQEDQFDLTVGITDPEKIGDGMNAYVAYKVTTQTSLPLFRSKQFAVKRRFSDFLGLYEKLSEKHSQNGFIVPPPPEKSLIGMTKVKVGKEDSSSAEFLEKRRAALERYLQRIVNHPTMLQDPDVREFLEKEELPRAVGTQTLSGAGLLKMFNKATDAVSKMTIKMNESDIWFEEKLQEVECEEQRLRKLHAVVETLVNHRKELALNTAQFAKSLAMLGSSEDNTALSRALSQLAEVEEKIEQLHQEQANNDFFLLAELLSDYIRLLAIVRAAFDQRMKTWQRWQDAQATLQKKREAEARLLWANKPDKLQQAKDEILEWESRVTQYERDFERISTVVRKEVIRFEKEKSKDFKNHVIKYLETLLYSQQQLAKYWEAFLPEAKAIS

Consider “Cation-Independent Mannose-6-Phosphate Receptor (CIMPR) (a stretch of the chain, no sequence given)”, for which the ratio of CIMPR to GFP band intensity in assay [1] is 0.38.

For “Cation-Independent Mannose-6-Phosphate Receptor (CIMPR) (a stretch of the chain, no sequence given) (receptor; other documents disagree on this pair)”, the ratio of CIMPR to GFP band intensity in assay [2] came to 0.12.
